Hit rate of the full screen: of about 410,000 compounds, about 6,400 (1.6%) were called active. The shares of active, inactive and inconclusive entries below differ from those in the screen. Calls follow the shape of the dose curve; as a rule, active = well fitted inhibition curve with a large enough effect; inconclusive = small, poorly fitted or top-dose-only effect; inactive = no such curve, though single readings can be large or run the other way. No potency is given beside an inconclusive call; the fits are too rough.
target: Glucagon-like peptide 1 receptor (Homo sapiens) (UniProt P43220); experiment: qHTS of GLP-1 Receptor Inverse Agonists (Inhibition Mode); conditions: HEK293 GLP-1R CRE-luciferase, luminescence, 24 h, GLP-1R form is constitutively active; activity change, negative = inhibition: at 38.3 µM (top of the series) unless noted; also: nearly all actives have a fitted effect of over 55% in size
Outline: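 Stable HEK293 clone (constitutively active GLP-1R + cAMP-response luciferase); 200 cells/uL plated, 12 h pre-culture, compound 24 hr, 37 deg C/5% CO2; detection reagent 12 min RT; luminescence.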
% is scaled to controls: 0 for no effect and ±100 for the full control effect; potency is read from the fitted curve at half-maximal effect; tags tell the direction and shape of the fitted curve.

Chain of UniProt P43220 (P43220 whole entry, looked up): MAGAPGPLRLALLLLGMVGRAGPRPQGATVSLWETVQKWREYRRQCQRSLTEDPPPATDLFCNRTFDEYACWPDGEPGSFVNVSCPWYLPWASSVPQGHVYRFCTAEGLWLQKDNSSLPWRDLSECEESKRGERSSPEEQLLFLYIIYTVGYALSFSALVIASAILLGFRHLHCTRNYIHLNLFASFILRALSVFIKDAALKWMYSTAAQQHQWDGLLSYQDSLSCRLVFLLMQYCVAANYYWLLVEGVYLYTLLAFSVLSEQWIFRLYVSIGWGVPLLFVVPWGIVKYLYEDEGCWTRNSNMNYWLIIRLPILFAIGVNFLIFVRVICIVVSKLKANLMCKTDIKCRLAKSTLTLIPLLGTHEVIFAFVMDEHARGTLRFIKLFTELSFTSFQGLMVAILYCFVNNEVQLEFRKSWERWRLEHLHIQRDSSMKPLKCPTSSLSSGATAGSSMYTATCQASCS

Structure (SMILES) | activity change, negative = inhibition | Potency
CCCn1c(CNC(=O)c2ccccc2)nc2ccccc21 | inactive: -4.44% | –
Cc1cc(N2CCN(C)CC2)nc2ccc(NC(=O)Nc3ccccc3Br)cc12 | – | inconclusive [inhibitor, partial curve, poor fit]
Cc1c(C(=O)N(C)Cc2nc3ccccc3c(=O)[nH]2)oc2ccccc12 | – | inconclusive [inhibitor, partial curve, poor fit]
COc1cc(/C=C(\C#N)C(=O)NCC2CCCO2)ccc1OCCC(C)C (stereo unspecified) | – | inconclusive [inhibitor, partial curve, poor fit]
Cc1cc(C)n2nc(SCC(=O)Nc3cc(Cl)ccc3C)nc2n1 | inactive: 8.35% | –
CSCCCNC(=S)N1CCc2ccccc2C1 | – | inconclusive [inhibitor, partial curve, poor fit]
COc1ccc(CNC(=O)Cn2c(=O)oc3cc(S(=O)(=O)N4CCCCCC4)ccc32)cc1 | inactive: -30.7% | –
CCOC(=O)C(C)N1N=C(/C=C/c2ccc(C)cc2)CCC1=O (stereo unspecified) | – | inconclusive [inhibitor, single point]
COc1ccccc1CNC(=O)CCCCn1c(=O)c2ccccc2n(Cc2c(C)cc(C)cc2C)c1=O | inactive: 1.19% | –
CCCc1cc(C(=O)Nc2cccc3ccccc23)n(C)n1 | – | inconclusive [inhibitor, single point]
Cc1cc(C)c2c(c1)-c1cc(C)nn1C(c1ccc3c(c1)OCO3)N2 (stereo unspecified) | inactive: 0% | –
N/C(=N\OC(=O)CC(c1ccccc1)c1ccccc1)c1cccnc1 | – | inconclusive [inhibitor, partial curve, poor fit]
Cc1ccccc1C(=O)NCC(=O)c1ccccc1 | inactive: -24.7% | –
CCOc1ccccc1NC(=O)c1c(NC(=O)CCC(=O)O)sc2c1CCCCC2 | inactive: 47.1% | –
C[C@H]1CN=C(N(C)C)N1CCc1ccccc1 | inactive: 9.71% | –
NC(=O)c1ccc(NC(=O)CSC2=Nc3ccccc3C3CC=NN23)cc1 (stereo unspecified) | inactive: 32.2% | –
CC1(C)CC(=O)C2=C(C1)Nc1ccccc1NC2c1ccccc1F (stereo unspecified) | inactive: -3.27% | –
CN(CC(=O)Nc1cccc(Cl)c1)S(=O)(=O)c1ccc2[nH]c3c(c2c1)CCCC3 | – | inconclusive [inhibitor, single point]
O=S(=O)(CC(c1ccccc1)N1CCCCC1)c1ccc(Cl)cc1 (stereo unspecified) | inactive: 0.0471% | –
CC(C)[C@H](Nc1ccc(S(=O)(=O)N2CCOCC2)cc1[N+](=O)[O-])C(=O)OCC(=O)N(C(C)C)C(C)C | – | inconclusive [inhibitor, partial curve, poor fit]
COc1ccc(-c2cccc(C3CC=CC4C3C(=O)N(Cc3ccccc3)C4c3ccc4ccccc4c3)c2)cc1 (stereo unspecified) | – | inconclusive [inhibitor, partial curve, poor fit]
COc1cccc(-c2cnc3c(NC(C)=O)cc(-c4cc(F)ccc4OC)cn23)c1 | – | inconclusive [inhibitor, partial curve, poor fit]

Structure (SMILES) | activity change, negative = inhibition | Potency
COC(=O)c1ccc(CN2CCC(CO)(Cc3ccc(OC)cc3)CC2)cc1 | – | inconclusive [inhibitor, single point]
COc1ccc(-n2c(-c3cccc(C)c3[N+](=O)[O-])n[nH]c2=S)cc1 | inactive: 12.4% | –
Cc1ccc(OCC(=O)NC(=S)Nc2ccc(Br)c(C)n2)cc1 | inactive: -8.39% | –
Clc1nccnc1N/N=C/c1ccc(Br)cc1 | inactive: -13.9% | –
C=CCn1c(SCC(=O)NCC)nnc1-c1cc2c(s1)CCC(CC)C2 (stereo unspecified) | – | inconclusive [inhibitor, partial curve, poor fit]
CC/C(=N\NC(=S)Nc1ccc(OC)cc1)c1ccc(OC(F)F)cc1 | – | inconclusive [inhibitor, partial curve, poor fit]
CC1(C)CC(NC(=O)COc2cc3oc(=O)c4c(c3cc2Cl)CCC4)CC(C)(C)N1 | – | inconclusive [inhibitor, partial curve, poor fit]
COc1ccc(-c2nc3c4ccccc4ccn3c2CN2CCCCC2)cc1OC | – | inconclusive [inhibitor, single point]
Cc1oc(-c2cc(F)ccc2F)nc1CN1CCCN(C(=O)c2ccco2)CC1 | – | inconclusive [inhibitor, single point]
CCc1cccc(NC(=S)N(CCN(C)C)C2CCN(C(C)C)CC2)c1 | – | active: 5.01 µM
Cc1cc(OCC(=O)N(Cc2ccccc2)C2CCS(=O)(=O)C2)ccc1Cl (stereo unspecified) | – | inconclusive [inhibitor, partial curve]
CCCCn1ccnc1C(=O)c1cccc(S(=O)(=O)N2CC(C)CC(C)C2)c1 (stereo unspecified) | – | inconclusive [inhibitor, single point]
CC[C@]12c3[nH]c4ccc(Cl)cc4c3CCN1C(=O)[C@@H](CC(=O)NCc1cccc(C(F)(F)F)c1)C[C@@H]2C(=O)N1CCN(C(=O)C2CC2)CC1 | – | inconclusive [inhibitor, single point]
O=C(CNC(=O)Cc1ccccc1)NCC(=O)N1CCN(C(c2ccccc2)c2ccccc2)CC1 | – | inconclusive [inhibitor, single point]
C#Cc1cc(N2CCN(C(=O)c3ccoc3)CC2)n2nc(-c3cccc(Cl)c3)cc2n1 | – | inconclusive [inhibitor, single point]
Clc1ccccc1/C=C/c1ccnc2ccccc12 | – | inconclusive [inhibitor, single point]
COc1cccc(CNC(=O)CCC2CCCN(C/C=C/c3ccccc3OC)C2)c1 (stereo unspecified) | – | inconclusive [inhibitor, partial curve, poor fit]
C=CCNC(=O)c1ccc(-c2nc(-c3ccc(Cl)cc3Cl)cs2)cc1 | inactive: 0% | –
CCN1C(=O)[C@H]2[C@@H](c3ccc(-c4cccc(Cl)c4)cc3)N3CCCC[C@@]3(C(=O)OC)[C@H]2C1=O | – | active: 10 µM
Cc1c(CNCCc2ccccc2Cl)c(C(=O)O)c(C)n1-c1ccccc1 | – | inconclusive [inhibitor, partial curve, poor fit]
COc1ccccc1C(=O)Nc1c(-c2ccccc2)nc2ccccn12 | – | inconclusive [inhibitor, full curve]
COc1ccc(CNC(=O)CCc2cn(Cc3cc(C)ccc3C)c3ccccc23)cc1OC | – | inconclusive [inhibitor, single point]

Structure (SMILES) | activity change, negative = inhibition | Potency
CCOC(=O)CSc1nc2cc3c(cc2cc1CC)OCCO3 | – | inconclusive [inhibitor, partial curve, poor fit]
O=C(Nc1ccc(Cl)cc1)c1ccc2snnc2c1 | – | inconclusive [inhibitor, single point]
COc1ccccc1CN(Cc1nc2ccccc2c(=O)[nH]1)C(=O)Nc1ccc(C)cc1 | – | active: 10 µM
O=C1/C(=C/c2ccco2)SC(=S)N1CCC(=O)N1CCCCC1CCO (stereo unspecified) | – | inconclusive [inhibitor, single point]
Cn1c2ccc(F)cc2c2ncn(Cc3ccccn3)c(=O)c21 | inactive: 68.3% | –
CC1(c2nnc(-c3ccccc3)o2)CC(c2c(Cl)cccc2Cl)=NO1 (stereo unspecified) | – | inconclusive [inhibitor, single point]
CCN(Cc1ccccc1)Cc1c(O)ccc2oc(C)c(C(=O)Nc3ccccc3C)c12 | – | inconclusive [inhibitor, single point]
CC(=O)N1c2ccc(S(=O)(=O)N(C)CC(=O)N(Cc3ccccc3)C(C)C)cc2CC1C (stereo unspecified) | inactive: 8.78% | –
OCCN(CCO)CC(O)COCCC12CC3CC(CC(C3)C1)C2 (stereo unspecified) | – | inconclusive [inhibitor, partial curve, poor fit]
COc1ccc([C@H]2N[C@]3(CCCN(Cc4ccco4)C3=O)[C@H]3C(=O)N(C)C(=O)[C@@H]23)cc1 | inactive: 12% | –
CCC(C)NC(=O)Cn1c(=O)n(-c2ccc(C)c(C)c2)c(=O)c2c(C)c(C(=O)N(CC)CC)sc21 (stereo unspecified) | inactive: 12.8% | –
C[C@@H]1CN([C@H](C)CO)C(=O)c2cc(NC(=O)Nc3ccc4c(c3)OCO4)ccc2O[C@H]1CN(C)Cc1ccncc1 | inactive: -60.6% | –
CCN(c1ccccc1)S(=O)(=O)c1ccc(Oc2ccccc2)c(N)c1 | – | inconclusive [inhibitor, partial curve, poor fit]
CN(c1nc2ccccc2[nH]c1=O)C1CCCCC1 | – | inconclusive [inhibitor, full curve, poor fit]
O=C(c1cc2sccc2n1Cc1ccccc1)N1CCc2ccccc21 | – | inconclusive [inhibitor, partial curve, poor fit]
COc1ccc(C(=O)CC(=O)C(=O)Nc2ccccc2C(F)(F)F)cc1 | inactive: -25.1% | –
CCc1ccccc1-n1ncc(C(=O)Nc2ccc(OC)cc2)c1C | – | inconclusive [inhibitor, full curve]
Cc1ccnc(N2C(=O)c3ccccc3C2O)c1 (stereo unspecified) | – | inconclusive [inhibitor, partial curve, poor fit]
COc1ccc(NC(=O)C2(C)CCN2C(=O)c2ccc(C(C)(C)C)cc2)cc1OC (stereo unspecified) | – | inconclusive [inhibitor, partial curve, poor fit]
CCN(C(=O)Cc1ccccc1OC)c1nnc(-c2ccncc2)s1 | – | inconclusive [inhibitor, single point]
Cc1cc(C)cc(NC(=S)NCCSc2ccc(Cl)cc2)c1 | – | inconclusive [inhibitor, partial curve, poor fit]
CC1(C)CC(=O)C(C(c2ccco2)C2C(=O)CC(C)(C)CC2=O)C(=O)C1 | inactive: 0% | –

Source: PubChem BioAssay AID624417 (National Center for Advancing Translational Sciences (NCATS), 2012)
